Test results from ChEMBL document CHEMBL1201862, “PubChem BioAssay data set” (2004).
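Exposure lasted 48 hours, with cells grown in 96-well plates and compounds tested at five concentrations. GI50 = concentration required for 50% inhibition of growth.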 Calls of active or inactive are those of the source. No stated cut-off is given here; in the data, active = GI50 up to about 1.1 µM and inactive = higher.

Test system: NCI-H322M
Test: NCI tumour cell line growth inhibition, 48 h

Row | Structure (SMILES) | GI50
1 | Cc1csc(NC23CC4CC(CC(C4)C2)C3)[n+]1C(P(=O)([O-])O)P(=O)(O)O (stereo not drawn) | inactive: > 100 µM
2 | COC(=O)c1c(O)c2c(c3c1OC(C)(C)CC3)OC(C)(C)CC2 | inactive: 25.2 µM
3 | Brc1ccc(C2C3CSc4ccccc4C3=NN2c2ccccc2)cc1 (stereo not drawn) | inactive: > 100 µM
4 | O=c1n(CCO)nc2n1CCCN2 | inactive: > 100 µM
5 | O=C(O)CCCc1ccc2c(c1)CC1(C2)Cc2ccc(CCCC(=O)O)cc2C1 | inactive: > 100 µM
6 | CC(=O)NC(C=O)C(O[C@H](C)C(=O)NC(C)C(=O)NC(CCC(N)=O)C(=O)OCc1ccccc1)C(O)C(O)COC(=O)CCNc1c2ccccc2nc2cccc([N+](=O)[O-])c12 (stereo partly drawn) | inactive: 3.03 µM
7 | C[C@@H](c1ccccc1)C(CC#N)[C@H]1CCC[C@]1(O)C#Cc1ccc2c(c1)OCO2 (stereo partly drawn) | inactive: 17.4 µM
8 | COc1ccc(OC)c(C2CCCc3c2cnc2nc(N)nc(N)c32)c1 (stereo not drawn) | active: < 0.0416 µM
9 | CC(=O)OC(C(=O)O)C(OC(C)=O)C(OC(C)=O)C(OC(C)=O)C(=O)O (stereo not drawn) | inactive: > 100 µM
10 | CC(=O)OC1COC(n2c(=S)n(-c3ccccc3)c(=O)c3ccccc32)C(OC(C)=O)C1OC(C)=O (stereo not drawn) | inactive: > 100 µM
11 | O=C(Cc1ccc2ccccc2c1)NCc1ccc(C(=O)NCCc2ccccc2)cc1 | inactive: > 100 µM
12 | CC(=O)Nc1[nH]n(C)c(=O)c1-c1nnc(C)s1 | inactive: > 100 µM
13 | C=CCN(c1cc(OC)c(NC(C)=O)cc1[N+](=O)[O-])S(C)(=O)=O | inactive: > 100 µM
14 | CC(=O)O[C@H]1CC[C@@]2(C)C(=CC[C@@H]3C2CC[C@]2(C)Nc4oncc4CC32)C1 (stereo partly drawn) | inactive: > 100 µM
15 | CC(=O)C(=[N+]=[N-])C(=O)OCCOC(=O)C(=[N+]=[N-])C(C)=O | active: > 1 µM
16 | O=C(c1ccccc1)c1c(C(F)(F)F)[n+]([O-])c2ccccc2[n+]1[O-] | inactive: 3.37 µM
17 | COC(=O)C(/C(=N/N)C(=O)Nc1cccc(O)c1)c1nc2ccccc2nc1O (stereo not drawn) | inactive: > 100 µM
18 | Cc1cc(N(CCC#N)S(=O)(=O)c2ccccc2)ccc1C=O | inactive: > 100 µM
19 | CC(C)C(/C=C/c1ccc(Cl)cc1)=N\NC(=O)N/N=C(/C=C/c1ccc(Cl)cc1)C(C)C | inactive: 27.3 µM
20 | Cc1nc(N)nc(N)c1CCCCc1ccccc1 | inactive: 17.6 µM
21 | Cc1c2ccccc2c(C2C3C(=O)N(c4cccc5ccccc45)C(=O)C3ON2Cc2ccc(CC(N)=O)cc2)c2ccccc12 (stereo not drawn) | inactive: 20.4 µM
22 | CC(=O)Nc1[nH]c(=O)[nH]c(=O)c1N(C(C)=O)C(C)=O | inactive: > 100 µM
23 | COC(=O)C1SC(N(C)c2ccccc2)=NC12c1ccccc1Nc1ccccc12 (stereo not drawn) | inactive: 25.8 µM
24 | CC1(/C=C/CCSc2ccccc2)CC(=O)C2CC1C2(C)C (stereo not drawn) | inactive: 78.2 µM

Row | Structure (SMILES) | GI50
25 | O=c1[nH]cnc2c1ncn2[C@@H]1C[C@H]1CO | inactive: > 100 µM
26 | CCCNC(=S)N/C=C1/C(=O)C=C(C)OC1=O | inactive: > 100 µM
27 | COc1ccc(C[N+](C)(C)N)cc1OC | inactive: > 100 µM
28 | COc1ccc2nc3cc([N+](=O)[O-])ccc3c(Nc3ccc(S(=O)(=O)Nc4ncccn4)cc3)c2c1 | inactive: > 74.6 µM
29 | COC(=O)C1=C2Nc3ccccc3C23CCN2C(O)C4(CC5CC67CCOC6CCN6CCC8(c9cccc(OC)c9N(C4)C58O)C67)C4OCCC4(C1)C23 (stereo not drawn) | inactive: > 100 µM
30 | N#CC(=S)Nc1cccc(Cl)c1 | inactive: 37.5 µM
31 | COc1ccc2c(c1)N=C1CSC(c3ccccc3Cl)N1C2 (stereo not drawn) | inactive: 15.3 µM
32 | CC1CC(C)C(O)C(C2CC(CC(=O)NC3CCCCC3)CC(=O)O2)C1 (stereo not drawn) | inactive: > 100 µM
33 | CC1C2CC(C/C2=N/O)C1(C)C (stereo not drawn) | inactive: > 100 µM
34 | CC(=O)OC1CC2C(C)(C)OC(=O)CC(OC(C)=O)[C@]2(C)C2CCC3(C)C(=CCC3c3ccoc3)[C@]12C (stereo partly drawn) | inactive: 29 µM
35 | OC(C1=C/C(=C\c2ccncc2)c2ccccc21)c1ccncc1 (stereo not drawn) | inactive: 14.4 µM
36 | COc1cc2c(c(OC)c1O)-c1ccc(OC)c(=O)cc1[C@@H](NC(=O)C(F)(F)F)CC2 | active: 0.508 µM
37 | O=C1Oc2ccccc2C(=O)/C1=C/N1C(=O)/C(=C/c2ccc([N+](=O)[O-])cc2)SC1=S | inactive: 33.7 µM
38 | C[C@]12CC[C@H](O)CC1=CC[C@@H]1C2CC[C@]2(C)Nc3c(cnn3-c3ccccc3)CC12 (stereo partly drawn) | inactive: 4.02 µM
39 | O=C(O)C1CCC(=O)N1C(=O)C(Cl)c1ccccc1 (stereo not drawn) | inactive: > 100 µM
40 | c1ccc2c(c1)ccc1nc(-c3ccc4c(c3)OCO4)c3c(c12)CCC3 | inactive: > 100 µM
41 | O=C(O)c1cc(-c2ccc3c(O)c(O)ccc3c2)ccc1O | inactive: > 75 µM
42 | Cc1ccc(-c2nc(-c3nccc4ccccc34)oc2-c2ccccc2)cc1 | inactive: 21.3 µM
43 | CC(=O)Nc1ccc(OC2=CCN(C)CC2)cc1 | inactive: > 100 µM
44 | O=C1CCC2(CC1)Cc1ccccc1C2O (stereo not drawn) | inactive: > 100 µM
45 | CC1(C)OC([C@H](O)CO)C([C@H]2NCCS2)O1 (stereo partly drawn) | inactive: > 100 µM
46 | CCOC(=O)c1c(C)n(C)c2c1cc(O)c1[nH]c3c(c12)CCCC3 | inactive: 17.6 µM
47 | C[C@H](OCc1ccccc1)C(=O)N1CCS(=O)(=O)N2CCC[C@@H]2C1=O | inactive: > 100 µM
48 | Nc1nc(N)c2c(Cl)c(CNc3ccc(C(=O)NC(CC(=O)O)C(=O)O)cc3)ccc2n1 (stereo not drawn) | active: < 0.01 µM

Row | Structure (SMILES) | GI50
49 | CC(=O)O[C@H]1CC[C@H]2[C@@H]3CCC4=C(C(=O)C=CC4(C)OC(C)=O)[C@H]3CC[C@]12C (stereo partly drawn) | inactive: 85.5 µM
50 | Cc1cc(C)c(S(=O)(=O)N[C@@H](/C=C(\Br)CO)C(C)C)c(C)c1 | inactive: 52.6 µM
51 | O=C1CC2(CCC(O)(c3ccco3)C(C(=O)c3ccco3)C2)C(=O)c2ccccc2N1 (stereo not drawn) | inactive: > 100 µM
52 | COc1ccc(C2SCC(=O)N2c2ccc(-n3c(-c4ccccc4)nc4ccccc4c3=O)cc2)cc1 (stereo not drawn) | inactive: > 100 µM
53 | CN(C)c1nc(N(C)C)n2nc(-c3ccccc3[N+](=O)[O-])nc2n1 | inactive: > 100 µM
54 | Cc1cccc(C)c1N1C(=O)C(=O)C(c2nc3ccccc3s2)/C(=N/c2cccc3c(=O)[nH][nH]c(=O)c23)C1=O (stereo not drawn) | inactive: > 100 µM
55 | CCOC(=O)C(NC(=O)CC)(C(F)(F)F)P(=O)(OCC)OCC (stereo not drawn) | inactive: > 100 µM
56 | Cc1occc1C(=S)Nc1ccc(Cl)c(/C=N/OC(C)(C)C)c1 | inactive: 17.5 µM
57 | Nc1nccc(-c2c[nH]c3cc(Br)ccc23)n1 [MERIDIANIN D] | inactive: 24.1 µM
58 | O=C1Nc2c(Cl)cc(Cl)cc2/C1=N/N=C/c1ccccc1O | inactive: 19 µM
59 | CC12OOC(c3ccccc31)c1c2ccc2ccccc12 (stereo not drawn) | inactive: 16.5 µM
60 | O=c1[nH]cc(NCCCl)c(=O)[nH]1 | inactive: > 100 µM
61 | CC(C)(C)[Si](C)(C)O/N=C\c1cccc(O[Si](C)(C)C(C)(C)C)c1 | inactive: 16.1 µM
62 | COc1cc2cc(C(=O)N3CC(CCl)c4ccc([N+](=O)[O-])cc43)[nH]c2c(OC)c1OC (stereo not drawn) | inactive: > 100 µM
63 | O=C1c2ccccc2C(=O)c2sc(Nc3ccccc3C(F)(F)F)nc21 | inactive: 13.2 µM
64 | O/N=C1\CC2(N3CCOCC3)CCC1(Cc1ccccc1)CC2 | inactive: > 100 µM
65 | C[S+](C)C1(c2ccccc2)C(=O)c2ccccc2C1=O | inactive: > 100 µM
66 | CCN(CC)CC1CCCCN1CC(=O)N1c2ccccc2NC(=O)c2ccccc21 (stereo not drawn) | inactive: > 100 µM
67 | COc1cc(O)c2c(c1)OCC1(Cc3cc(OC)c(OC)cc31)C2=O (stereo not drawn) | inactive: > 100 µM
68 | O=C(/C=C(\O)C(=O)O)/C=C(\O)c1ccc(Cl)cc1 | inactive: > 100 µM
69 | COc1ccc2c(c1)-c1c(c3ccccc3n1CCN1CCOCC1)CC2 | inactive: 31.9 µM
70 | Cc1nc(Cl)c(C)c(Cl)n1 | inactive: > 100 µM
71 | COc1cccc(C(C#N)NC23CC4CC(CC(C4)C2)C3)c1 (stereo not drawn) | inactive: > 100 µM
72 | COC(=O)CCn1cnc2c(SC)ncnc21 | inactive: > 100 µM

Row | Structure (SMILES) | GI50
73 | COC(=O)c1ccc2c(c1)S/C(=C/c1ccc3ccc4cccc5ccc1c3c45)S2 | inactive: 87.9 µM
74 | COc1cc2oc(=O)ccc2cc1C(=O)CC(C)C | inactive: > 100 µM
75 | CSC(SC)=C(C#N)C(=O)Nc1ccc(Cl)cc1 | inactive: 37.8 µM
76 | O=[N+]([O-])/C=C/c1c(Cl)cccc1Cl | inactive: 16.9 µM
77 | O=c1oc2ccccc2n1CCCn1c(=O)oc2ccccc21 | inactive: > 100 µM
78 | CCN(CC)CCNc1n[n+]([O-])c2cc([N+](=O)[O-])ccc2[n+]1[O-] | inactive: 2.34 µM
79 | N[C@H]1CCN(c2c(F)cc3c(=O)c(C(=O)O)cn4c3c2Oc2cc3c(ccc5ccccc53)cc2-4)C1 | inactive: 2.06 µM
80 | SC1=NC2=C(CSC/C2=C\c2cccc(Br)c2)C(c2cccc(Br)c2)N1 (stereo not drawn) | inactive: > 100 µM
81 | CS/C(c1ccccc1)=[N+](/C)[O-] | inactive: > 100 µM
82 | COc1cc2c(cc1OCCCCCCCCCCN1C(=O)c3cccc4cccc(c34)C1=O)N=C[C@@H]1CCCN1C2=O | inactive: 17.3 µM
83 | O=C(O)c1cc(/N=N/c2ccc([N+](=O)[O-])cc2)ccc1O | inactive: 26.1 µM
84 | NNC(=O)CCC(=O)NC1C2CC3CC(C2)CC1C3 (stereo not drawn) | inactive: > 100 µM
85 | O=[N+]([O-])CCc1cccc([N+](=O)[O-])c1 | inactive: > 100 µM
86 | CC1(C)CC(=O)c2c(N)n[nH]c2C1 | inactive: > 100 µM
87 | Nc1ncnc2c1sc(=S)n2-c1ccccc1 | inactive: > 100 µM
88 | CC12OC3(C)OC(=O)C(c4ccccc4)(O1)C3(C)O2 (stereo not drawn) | inactive: > 100 µM
89 | O=CC(NC(=O)N(CCCl)N=O)C(O)C(O)C(O)CO (stereo not drawn) | inactive: 1240 µM
90 | COc1ccc(-c2oc3c(OC)c(OC)c(OC)c(O)c3c(=O)c2OC)cc1O | active: 0.918 µM
91 | CC(=O)OC1c2ccccc2CC2(OC(C)=O)c3ccccc3C12 (stereo not drawn) | inactive: > 100 µM
92 | CCCCCCCCCCCC[C@@H](O)[C@H]1CC[C@H]([C@H](O)CCCC[C@H](O)CCCCC[C@@H](O)CC2=C[C@H](C)OC2=O)O1 | inactive: 5.15 µM
93 | CC1(C)N=C(N)N=C(N)N1c1cccc(C(=O)Nc2ccc(S(=O)(=O)F)cc2)c1 | inactive: > 100 µM
